Sequences with one replicate were seen in a single cluster, so their values are uncertain.
These sequences were tested on ATP (assay: switch fluorescence ratio, 500 uM ATP over buffer (Cy3 cluster intensity, sum of 5 cycles each) (fold (ratio)); higher = stronger signal-on switching upon ATP binding; sequences stand for … in TCGTCGGCAGCGTCAGATGTGTATAAGAGACAGTTTTTTTTTTTTTTTTTTTTTTTTT…TC). Settings: aptamer strand: ATP DNA aptamer (quencher-CACCTGGGGGAGTATTGCGGAGGAAGG + anchor), 100 nM annealed; ATP concentration: 500 uM; one replicate.
Summary of the method: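 Imaging in selection buffer was followed by imaging after 15 min with 500 uM ATP at 22 °C, for Cy3-labelled switching-strand clusters annealed to 100 nM quencher-labelled ATP aptamer on a modified Illumina MiSeq flow-cell. Five of these buffer/ATP cycles ran, separated by NaOH stripping and re-annealing. The fluorescence ratio per cluster is summed target-cycle over summed buffer-cycle Cy3 intensity, averaged per switch-domain sequence; clusters outside 100-1000 RFU were removed.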
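Note: ATP exposure 15 min at 22 °C before imaging.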

Row | Sequence | switch fluorescence ratio
1 | TTCTTGCAAG | 0.957
2 | TTCTTGTACG | 0.992
3 | TTCTTGTGGA | 0.998
4 | TTCTTTAAA | 0.973
5 | TTCTTTAAAT | 0.967
6 | TTCTTTAAGT | 1.01
7 | TTCTTTAGCC | 1.03
8 | TTCTTTCAGT | 0.909
9 | TTCTTTCCTT | 1.56
10 | TTCTTTTCCC | 1.29
11 | TTGAAAAACT | 1.79
12 | TTGAAAAG | 1.02
13 | TTGAACCAGG | 1.29
14 | TTGAACCCT | 1.05
15 | TTGAAGCTCC | 3.89
16 | TTGAAGCTT | 1.03
17 | TTGAAGTCTC | 1.25
18 | TTGAAGTTCA | 1
19 | TTGAATGTAT | 1.01
20 | TTGAATTTCC | 1.33
21 | TTGACATTCT | 0.961
22 | TTGACCTAGT | 1.04
23 | TTGACCTTCT | 1.6
24 | TTGACGTACC | 2.08
25 | TTGACTAGGC | 1.11

Row | Sequence | switch fluorescence ratio
26 | TTGACTCGTT | 1.02
27 | TTGAGAGAAC | 0.983
28 | TTGAGAGATC | 1.05
29 | TTGAGAGCAT | 1.04
30 | TTGAGAGTAA | 1.02
31 | TTGAGAGTCC | 0.96
32 | TTGAGCGCGT | 0.98
33 | TTGAGGATAC | 1.28
34 | TTGAGGCCCT | 1
35 | TTGAGGGCGT | 0.997
36 | TTGAGTATAA | 0.998
37 | TTGATACTTA | 0.96
38 | TTGATCATAA | 1.07
39 | TTGATCGCGG | 0.938
40 | TTGATCTGTA | 0.955
41 | TTGATTCCG | 1.17
42 | TTGATTCCGT | 1.1
43 | TTGATTGTGT | 1.09
44 | TTGCAAACTT | 0.973
45 | TTGCAATGTA | 1.12
46 | TTGCACTGCT | 1.2
47 | TTGCACTTAC | 1.85
48 | TTGCAGCCGA | 1.02
49 | TTGCAGGGTA | 0.998
50 | TTGCATGGAC | 0.993

Row | Sequence | switch fluorescence ratio
51 | TTGCATGTAG | 1.03
52 | TTGCCAGCCG | 1.07
53 | TTGCCAGTCA | 0.991
54 | TTGCCGACGT | 1.03
55 | TTGCCGCTGA | 1.06
56 | TTGCCGTGCG | 0.957
57 | TTGCGAACCT | 1.51
58 | TTGCGAAGGG | 1.28
59 | TTGCGCAAAA | 1.12
60 | TTGCGCGTCC | 1.02
61 | TTGCGGGTCT | 0.897
62 | TTGCGTATCA | 0.965
63 | TTGCGTCACC | 1.01
64 | TTGCGTCTT | 0.984
65 | TTGCTAATAG | 1.1
66 | TTGCTAATCT | 1.03
67 | TTGCTAGGCC | 0.979
68 | TTGCTAGGGG | 1.07
69 | TTGCTGGTTA | 1.01
70 | TTGCTTCCAA | 0.974
71 | TTGCTTGCTA | 1
72 | TTGCTTGGCA | 0.984
73 | TTGGAAATAT | 0.996
74 | TTGGAAATC | 0.997
75 | TTGGAAGAAC | 0.95

Row | Sequence | switch fluorescence ratio
76 | TTGGAAGTTG | 0.956
77 | TTGGACTCG | 0.977
78 | TTGGACTGAA | 1.01
79 | TTGGAGGCGC | 0.987
80 | TTGGAGTGCA | 0.961
81 | TTGGATAA | 1
82 | TTGGCAAAAG | 1.17
83 | TTGGCCAGGG | 1.06
84 | TTGGCCGCCG | 0.927
85 | TTGGCCTTGC | 1.11
86 | TTGGCGGTTC | 1.04
87 | TTGGCTCATG | 1
88 | TTGGCTTAAT | 1.02
89 | TTGGCTTGGC | 1.02
90 | TTGGGAGGTA | 1.08
91 | TTGGGCACAC | 1.47
92 | TTGGGCACCC | 0.982
93 | TTGGGGAT | 1
94 | TTGGGGTCAT | 1.02
95 | TTGGGGTTCC | 0.926
96 | TTGGGTCGTC | 0.989
97 | TTGGGTGCCA | 0.995
98 | TTGGTAAGGC | 0.996
99 | TTGGTATCAT | 0.942
100 | TTGGTATCG | 1.04
